Results as given in the supplement of paper PMC11417369.
± gives the standard deviation of the averaged measurements. Some of the results follow.

Each sequence was assayed on PfAP2-LT AP2 domain (GST-tagged) (assay: gcPBM binding intensity (ln(normalized median fluorescence intensity)); higher = stronger DNA binding).
Method in brief: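 For binding intensity, the highest Masliner-normalised natural-log median intensity across replicate spots of either probe orientation was taken. Protein bound to the array was stained with Alexa488 anti-GST antibody and scanned at 488 nm. The protein, GST-tagged P. falciparum DNA-binding domains from E. coli at about 25 μg on average, had been applied for 1 h to an Agilent 4 × 180k array of primer-extended double-stranded 36-bp intergenic genomic probes and negative controls.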

“TATATATTATATTCATGTACGTAAAAATTTTGAATA [XGTACX_site6734]” and “ATTTATTTTATAATATATAAATGATATATCTTATTA [CACACA_negctrl_site66]” are within error of each other in “gcPBM binding intensity (ln)” value: 8.46 ± 0.38 for the first, 8.39 ± 0.34 for the second.

“GTAATCCACAAACACACACACATACACATATATATA [CACACA_site2728]” and “AAAAAAACAACATGCACACGCACACCCAAAAAAAGC [CACACA_site72]” are within error of each other in “gcPBM binding intensity (ln)” value: 9.98 ± 0.19 for the first, 9.84 ± 0.32 for the second.

“ATCATTTTTAATAAATGTACAAGTTTTAAAAAAAAA [XGTACX_site7340]” and “ATATATTACAATATATGTACTTAATTTGCTTAAATA [XGTACX_site7912]” are within error of each other in “gcPBM binding intensity (ln)” value: 8.34 ± 0.47 for the first, 8.6 ± 0.52 for the second.

“AGAGGAAAAATAAAAGGAAAAAAGAAAATAATATTG [CACACA_negctrl_site852]” and “ATAATATTTTAGAGCAGTACACTTTTATATTTATTG [XGTACX_site5728]” are within error of each other in “gcPBM binding intensity (ln)” value: 8.57 ± 0.59 for the first, 8.81 ± 0.42 for the second.

“TAAAACAGAATGAGGAGTACAAAAAGAAGAAAAGGG [XGTACX_site1246]” and “AAAATAAATATTACATGTACATATATATATATATAT [XGTACX_site8492]” are within error of each other in “gcPBM binding intensity (ln)” value: 9.09 ± 0.57 for the first, 9.59 ± 0.23 for the second.

“GGTAGGTGAATATATACACACATATATTATATATAT [CACACA_site1984]” and “TACACATGTTTAAAATGTACGTTTTATAACACACAC [XGTACX_site8229]” are within error of each other in “gcPBM binding intensity (ln)” value: 9.26 ± 0.42 for the first, 9.29 ± 0.28 for the second.

“AAAAAAAATTAAGCATGTATAAATATATATATATAT [CACACA_negctrl_site1540]” and “TTTTACAAGTATTGATAAATAAGAAATATATAAAAT [CACACA_negctrl_site529]” are within error of each other in “gcPBM binding intensity (ln)” value: 9.12 ± 0.28 for the first, 8.4 ± 0.48 for the second.

First: GTGTATTTTGTGCGCACACACATGCAAAAAGAAATA [CACACA_site6660]
Second: TAACACATAAATAAATATATACATATATATAAAATA [CACACA_negctrl_site375]
The “gcPBM binding intensity (ln)” value of the first is higher: 9.67 ± 0.37 for the first, 8.81 ± 0.46 for the second.

“TTTGTGCCTATAAATTAACACACAGAAATATATAGA [CACACA_site8175]” and “AAAAACTTATATGATACACACGATAAACAAAATAAA [CACACA_site1039]” are within error of each other in “gcPBM binding intensity (ln)” value: 9.06 ± 0.28 for the first, 8.99 ± 0.38 for the second.

“ATTCTTTTAAACAGTACACACACACCGATATATATA [CACACA_site8213]” and “AATATATATATATATACATGCATATATTCCTTCCTT [TGCATGCA_site890]” are within error of each other in “gcPBM binding intensity (ln)” value: 9.55 ± 0.3 for the first, 9.28 ± 0.21 for the second.

“AATATATCATAATGATGTACAAGTAAAACCGTTACA [XGTACX_site4280]” and “GATCTATATATCATTACACACTTGAATTACTTAAAA [CACACA_site21]” are within error of each other in “gcPBM binding intensity (ln)” value: 8.94 ± 0.4 for the first, 8.65 ± 0.35 for the second.

“CAAAAATACATTATAATAATATGCACAATAATAAAT [XGTACX_negctrl_site263]” and “ATAAAATAAAATTGGTGTACTTTTGATAAAATAAAA [XGTACX_site4264]” are within error of each other in “gcPBM binding intensity (ln)” value: 8.95 ± 0.38 for the first, 8.46 ± 0.53 for the second.

“TTTTTTTTTTTTATTTGTACACATTTTCATATTTTT [XGTACX_site4406]” and “TATATTTACTCTAAGTGTACATATTATTTTATAATA [XGTACX_site2046]” are within error of each other in “gcPBM binding intensity (ln)” value: 8.92 ± 0.54 for the first, 8.55 ± 0.47 for the second.

“TATATATATATGTGCACACATAAAGATATTATTTTT [CACACA_site3733]” and “AAAAGTAAAAAAAGCACACACGAAAAAAAATAAAAA [CACACA_site5264]” are within error of each other in “gcPBM binding intensity (ln)” value: 9.67 ± 0.34 for the first, 9.15 ± 0.55 for the second.

“TCCATAAATAATTGTAGTACACATACTATGTGACAT [XGTACX_site7268]” and “TATTAAAAAAAAAAATAAAAAAATAAAATAAAATAA [CACACA_negctrl_site580]” are within error of each other in “gcPBM binding intensity (ln)” value: 8.88 ± 0.36 for the first, 8.35 ± 0.56 for the second.

“TATTTATTTATAAATGCATGTCGCTCTTTTTATTAC [TGCATGCA_site626]” and “ATATATATATATATGTGTACATATAAGATAGAAGAA [XGTACX_site3198]” are within error of each other in “gcPBM binding intensity (ln)” value: 9.01 ± 0.4 for the first, 9.37 ± 0.4 for the second.

“TTATGCATAAAAGGTGGTACTCCGTATATACATTCT [XGTACX_site4354]” and “AACTATAAAAGTTTTACACACTGTTTTTAAATAATG [CACACA_site7686]” are within error of each other in “gcPBM binding intensity (ln)” value: 8.87 ± 0.42 for the first, 8.67 ± 0.44 for the second.

“ATTATTATAGATATAACACACATAATTACATACTTA [CACACA_site6837]” and “TTTCTTTGTATTTATAGTACATATTTTAATAACTGC [XGTACX_site6673]” are within error of each other in “gcPBM binding intensity (ln)” value: 8.8 ± 0.4 for the first, 8.76 ± 0.54 for the second.

“ATAATATTTTATTATACATGCAAATTATTATATATA [TGCATGCA_site40]” and “TAAAAATTAAAAAGGGTGCAAAAAAAAAAAAAAAAA [GTGCAC_site9733]” are within error of each other in “gcPBM binding intensity (ln)” value: 8.46 ± 0.45 for the first, 8.66 ± 0.53 for the second.

“TATTAATTATAAGATGCATGTGCAAAAATATGTTCC [TGCATGCA_site51]” and “GATTAAAATCAAAGGTGTACGCACAAATAAGTCCCA [XGTACX_site4360]” are within error of each other in “gcPBM binding intensity (ln)” value: 8.91 ± 0.33 for the first, 8.98 ± 0.38 for the second.

“CACCCTTTGTTTTAGAGTACATATGTATATACGTAA [XGTACX_site7964]” and “TATATATATTTATGTACACACATATATACCTTTCAT [CACACA_site5479]” are within error of each other in “gcPBM binding intensity (ln)” value: 8.75 ± 0.45 for the first, 9.23 ± 0.37 for the second.

“TTTCCGGTAATATGGAGATATATGTGGGTTTTTTTT [GTGCAC_negctrl_site374]” and “ACAAAATTTACAAAATGTACAAAGTATGTGTTTTAT [XGTACX_site6462]” are within error of each other in “gcPBM binding intensity (ln)” value: 8.99 ± 0.3 for the first, 8.82 ± 0.38 for the second.
